# Reference: the supplement of paper PMC8813932
# Where a name gives a salt, the structure may show the parent alone. ± gives the standard deviation of the averaged measurements. The list shows a part of the results. Many values rest on one well or one pass, so single values are uncertain.
# Tests used:
# Assay in all cases: log2 surviving fraction relative to plate median (drug vs vehicle, or drug+dl922-947 vs dl922-947 alone); ovarian cancer lines: OVCAR4 is platinum-sensitive while Ov4Cis resists cisplatin and Ov4Carbo carboplatin; higher = more cell survival
# Details in all cases: compound concentration: 10 uM, 192 h
# [1] = system: OVCAR4
# [2] = system: Ov4Carbo
# [3] = system: Ov4Cis
# [4] = dl922-947 oncolytic adenovirus co-treatment: MOI 10
# [5] = dl922-947 oncolytic adenovirus co-treatment: none
Compound,"log2 surviving fraction [1, 4]","log2 surviving fraction [1, 5]","log2 surviving fraction [2, 4]","log2 surviving fraction [2, 5]","log2 surviving fraction [3, 4]","log2 surviving fraction [3, 5]"
C=C1c2cccc(O)c2C(=O)C2=C(O)[C@]3(O)C(=O)C(C(N)=O)=C(O)[C@@H](N(C)C)[C@@H]3[C@@H](O)[C@H]12 [Methacycline hydrochloride (Physiomycine)],0.463 ± 0.73,-0.64 ± 0.21,0.0429,-0.238,-0.528,-1.08
O=C(NC[C@H]1CN(c2ccc(N3CCOCC3=O)cc2)C(=O)O1)c1ccc(Cl)s1 [Rivaroxaban (Xarelto)],0.308 ± 0.21,-0.136 ± 0.13,1.15,-0.784,0.0687,0.794
CN(C)CCN(Cc1cccs1)c1ccccn1 [Methapyrilene HCl],0.0219 ± 1.8,-0.139 ± 0.34,0.578,0.642,0.275,-0.299
CC(C)(S)[C@@H](N)C(=O)O [Penicillamine (Cuprimine)],0.394 ± 0.17,0.626 ± 0.12,0.462,-1.35,0.399,0.223
CN1c2ccccc2C(NCCCCCCC(=O)O)c2ccc(Cl)cc2S1(=O)=O (centres undefined) [Tianeptine sodium],1.13 ± 1.1,0.184 ± 0.73,1.15,0.266,1.36,1.2
CCCC(=O)OCOC(=O)C1=C(C)NC(C)=C(C(=O)OC)C1c1cccc(Cl)c1Cl (centres undefined) [Cleviprex (Clevidipine)],1.36 ± 1.1,0.23 ± 0.51,0.463,0.522,-0.86,0.526
NC(=O)c1cnccn1 [Pyrazinamide (Pyrazinoic acid amide)],0.325 ± 0.8,0.51 ± 0.49,-0.862,1.18,-0.406,0.91
Cc1cccc([C@H](C)c2c[nH]cn2)c1C [Dexmedetomidine],1.46 ± 0.33,-0.0363 ± 0.16,-0.412,-3.65,0.605,-0.134
O=C(O)[C@H](CC(=O)N1C[C@H]2CCCC[C@H]2C1)Cc1ccccc1 [Mitiglinide calcium],0.851 ± 0.71,0.687 ± 0.76,-0.357,-0.104,-0.102,1.07
CCOC(=O)C1=C(C)NC(C)=C(C(=O)OC)C1c1cccc(Cl)c1Cl (centres undefined) [Felodipine (Plendil)],-0.78 ± 0.7,-0.823 ± 0.97,-0.947,-3.04,0.364,-0.483
CC1=C(C(=O)OC(C)C)C(c2cccc([N+](=O)[O-])c2)C(C(=O)OC2CN(C(c3ccccc3)c3ccccc3)C2)=C(N)N1 (centres undefined) [Azelnidipine],0.487 ± 0.6,1.26 ± 0.23,-0.494,1.17,0.0085,1.09
Oc1cc(O)c(Cl)cn1 [Gimeracil],0.00362 ± 0.17,0.0126 ± 0.92,-0.0772,0.951,1.05,0.808
COC(=O)[C@H](Cc1ccccc1)NC(=O)[C@@H](N)CC(=O)O [Aspartame],-0.143 ± 0.87,-0.0139 ± 0.85,-0.439,0.0988,0.0597,0.00812
CC(S)C(=O)NCC(=O)O (centres undefined) [Tiopronin (Thiola)],0.698 ± 0.037,0.746 ± 0.35,0.0275,1.12,0.758,1.12
CCN[C@@H]1C[C@H](N)[C@@H](O[C@H]2OC(CN)=CC[C@H]2N)[C@H](O)[C@H]1O[C@H]1OC[C@](C)(O)[C@H](NC)[C@H]1O [Netilmicin Sulfate],0.289 ± 0.83,-0.655 ± 0.67,0.513,0.389,0.255,0.473
CC(C)(Oc1ccc(Cl)cc1)C(=O)O [Clofibric acid],-0.00636 ± 0.59,0.78 ± 0.035,-0.617,-0.0793,0.777,0.635
CCN(CC)CC#CCOC(=O)C(O)(c1ccccc1)C1CCCCC1 (centres undefined) [Oxybutynin chloride],-0.291 ± 0.089,-0.325 ± 0.28,-0.379,0.0698,0.207,-1.6
CCOC(=O)CCC(=O)O[C@H]1[C@H](O[C@@H]2[C@@H](C)[C@H](O[C@H]3C[C@@](C)(OC)[C@@H](O)[C@H](C)O3)[C@@H](C)C(=O)O[C@H](CC)[C@@](C)(O)[C@H](O)[C@@H](C)C(=O)[C@H](C)C[C@@]2(C)O)O[C@H](C)C[C@@H]1N(C)C [Erythromycin Ethylsuccinate],-0.264 ± 0.74,-0.267 ± 0.46,0.0655,-0.0919,-0.469,-0.258
Nc1nc2c(ncn2COC(CO)CO)c(=O)[nH]1 [Ganciclovir],-0.333 ± 0.11,0.266 ± 0.23,0.7,-0.1,0.0248,-0.412
CC1(C)O[C@@H]2C[C@H]3[C@@H]4C[C@H](F)C5=CC(=O)C=C[C@]5(C)[C@@]4(F)[C@@H](O)C[C@]3(C)[C@]2(C(=O)CO)O1 [Fluocinolone acetonide (Flucort-N)],1.66 ± 0.43,-0.294 ± 0.096,2.3,1.2,1.83,-0.656
Nc1ccn(C[C@@H](CO)OCP(=O)(O)O)c(=O)n1 [Cidofovir (Vistide)],0.356 ± 0.0065,-1.26 ± 0.43,-0.364,-0.000634,1.06,-0.222
C[N+](C)(CCOc1ccccc1)Cc1ccccc1.O=C([O-])c1cc2ccccc2cc1O [Bephenium Hydroxynaphthoate],-0.0269 ± 0.83,0.879 ± 1.8,0.726,0.855,0.78,0.748
Cc1cccc(C(C)c2c[nH]cn2)c1C (centres undefined) [Medetomidine HCl],0.193 ± 0.067,0.665 ± 0.038,-0.823,1.14,0.979,0.265
O=NO [Sodium nitrite],-0.845 ± 0.69,-0.261 ± 0.2,0.593,-0.513,-0.173,-0.209
NC(N)=Nc1nc(CSCC/C(N)=N/S(N)(=O)=O)cs1 [Famotidine (Pepcid)],1.14 ± 0.5,0.62 ± 0.35,-0.616,0.709,0.0154,0.979
CN(C)c1ccc(C(=C2C=CC(=[N+](C)C)C=C2)c2ccc(N(C)C)cc2)cc1 [Crystal violet],-8.395 ± 0.052,-9.96 ± 5.5,-7.49,-10.9,-7.16,-11.7
CN1CCN(CCCN2c3ccccc3Sc3ccc(C(F)(F)F)cc32)CC1 [Trifluoperazine 2HCl],-4.47 ± 1.6,-1.76 ± 0.03,-5.52,-3.69,-4.5,-3.93
O=C(CCCN1CCC(O)(c2ccc(Cl)cc2)CC1)c1ccc(F)cc1 [Haloperidol (Haldol)],0.154 ± 1.3,-0.108 ± 0.47,0.547,-2.02,1.03,2.02
CCCN[C@H]1CCc2nc(N)sc2C1 [Pramipexole dihydrochloride monohydrate],-0.946 ± 0.6,-0.132 ± 1.3,-0.376,-0.588,-0.486,-0.286
